The campaign covered roughly 150,000 compounds. About 540 (0.36%) showed an effect of 50% or more. The list shows a part of the results.

In this experiment the test system is Plasmodium falciparum. Kind of experiment: Primary screen in NF54 nanoGlo assay, in single point, at 2uM, 72h; a lower Z score goes with more inhibition. The format is functional, Erythrocyte. As to conditions: timepoint 72 hour.
One may read the % Inhibition as the drop in the measured response relative to a control, in per cent. On to `COc1ccc2[nH]nc(CN3CC[C@@H](CO)[C@@H](O)C3)c2c1`, for which the “% Inhibition” value was -9% and the Z score is given as 1.71.

Consider `O=C(c1ccccc1Cl)N1C2CCC1c1cncnc1C2` (configuration not stated), for which the “% Inhibition” value is reported as 4% and the Z score is -0.66.

For the compound `CN1C2CCC1CC(Oc1ccc(Cl)cn1)C2` (configuration not stated), the “% Inhibition” value is given as -12% and the Z score worked out at 1.53.

For `O=C(Cc1ccccn1)N1C[C@@H]2CC[C@H]1CN(Cc1ccncc1)C2`, the “% Inhibition” value stood at 5% and the Z score was -0.8.

For `CC(C)n1ccc(C(=O)NC2CC(C(=O)O)c3ccccc32)n1` (configuration not stated), the “% Inhibition” value was -1% and the Z score is 0.16.

`O=C(NC[C@H]1C[C@@H]2CC[N@]1C[C@@H]2CN1CCC(Cc2ccccc2)CC1)Nc1ccccc1`: the “% Inhibition” value was 42% and the Z score is -2.97.

For the compound `Cc1cc(C)c(CNc2nc3c(cnn3C(C)(C)C)c(=O)[nH]2)c(=O)[nH]1`, the “% Inhibition” value was -3% and the Z score is 0.61.

Regarding `c1ccc([C@H]2NCC23CCCCC3)cc1`, the “% Inhibition” value is reported as -2% and the Z score worked out at 0.39.

For `O=C(Oc1ccccc1)N1C2CCC1CC(Oc1ccccn1)C2` (configuration not stated), the “% Inhibition” value is given as -3% and the Z score was 0.49.

As to `N#Cc1ccccc1-c1ccc(-c2c(C#N)c(N)nc3c2[C@@H]2CC[C@H](C3)N2)o1`, the “% Inhibition” value is -6% and the Z score turned out to be 0.7.

Turning to `CC(C)Oc1cccc(CCN[C@@H](C)CO)c1`, the “% Inhibition” value was -7% and the Z score is 0.89.

Take `CCn1cc(C(=O)Nc2ccccc2C)c2cccnc21`: the “% Inhibition” value is -12% and the Z score came to 1.21.

With `CCCn1cc(-c2ccncc2)cc1C(=O)N1CCC2(CC1)OCCO2`, the “% Inhibition” value is recorded as -8% and the Z score was 0.94.

In the case of `C1CCC(C(NC2CCOC2)C2CC2)CC1` (configuration not stated), the “% Inhibition” value is given as -8% and the Z score came to 1.16.

As to `CCc1nc(C)c(CN2CCC[C@H](C(=O)c3cccc(Cl)c3)C2)[nH]1`, the “% Inhibition” value is -6% and the Z score is reported as 0.58.

As for `Cc1cnc(N2CCN(C)[C@]3(CCOC3)C2)c(Br)c1`, the “% Inhibition” value turned out to be 4% and the Z score was -0.59.

For the compound `N#Cc1ccc(N[C@H]2CCN(C3CCOCC3)C2=O)cc1C(F)(F)F`, the “% Inhibition” value came out at 1% and the Z score is listed as -0.05.

For `O=C(NCCc1cnn[nH]1)c1cccn(Cc2c(Cl)cccc2Cl)c1=O`, the “% Inhibition” value is reported as -22% and the Z score is listed as 2.23.

As for `CCCn1ccc2oc(C)c(C(=O)N3CCC4(CC3)OCCO4)c2c1=O`, the “% Inhibition” value is listed as -2% and the Z score worked out at 0.36.

As to `C[C@@H](CCCC(C)(C)O)NC1CCCCCC1`, the “% Inhibition” value is reported as -6% and the Z score came out at 1.1.

On to `CN(Cc1cc[nH]n1)C(=O)c1cc(S(=O)(=O)F)c[nH]1`, for which the “% Inhibition” value is -6% and the Z score amounted to 0.97.

Regarding `N#Cc1cnc2ccccc2c1N1CCC(C(=O)N2CCC3(CC2)OCCO3)CC1`, the “% Inhibition” value is recorded as -18% and the Z score was found to be 1.81.

With `COc1cc(=O)n(-c2ccc(F)cc2)nc1C(=O)N1CCC2(CC1)OCCO2`, the “% Inhibition” value was found to be 26% and the Z score was -3.03.

In the case of `CN(C(=O)CCC(F)(F)F)C1CC2CCC(C1)N2` (configuration not stated), the “% Inhibition” value is listed as -19% and the Z score was determined as 1.62.

Take `CC1CC2CCCCC2N1Cc1ccon1` (configuration not stated): the “% Inhibition” value is on record as -12% and the Z score was determined as 1.74.

With `CC(C)CN1CCN(Cc2ccncc2)[C@H]2CS(=O)(=O)C[C@H]21`, the “% Inhibition” value was -1% and the Z score came to 0.26.

With `C[C@@H](CC1CCC1)NCc1ccccc1`, the “% Inhibition” value was -10% and the Z score is on record as 1.49.

For `Cc1nn(CCc2ccc(F)c(F)c2)c(=O)o1`, the “% Inhibition” value is on record as 10% and the Z score is -1.99.

For `C[C@@H](C(=O)Nc1ccccn1)N1CCOC2(CCCC2)C1`, the “% Inhibition” value was -17% and the Z score amounted to 2.14.

Consider `COc1cccc(C[C@H](C)NC(=O)N(C)C2CCC(CO)CC2)c1` (some centres not stated), for which the “% Inhibition” value was -11% and the Z score is on record as 0.93.

As for `CN(CC(O)c1ccccc1)C1CC2CCC1C2` (configuration not stated), the “% Inhibition” value is -1% and the Z score was 0.16.

For `O=C(Cc1ccc(O)c(F)c1)N1CCN(CC2CC2)[C@@H]2CS(=O)(=O)C[C@@H]21`, the “% Inhibition” value was 5% and the Z score is listed as -0.72.

Take `CN(C)[C@H]1CCC[C@@H]1NC(=O)c1n[nH]c(=O)c2ccccc12`: the “% Inhibition” value worked out at 10% and the Z score is -1.12.

As for `C=CCOc1cccc2c1cc(C(=O)NC1CC1)n2Cc1ccc(C(C)(C)C)cc1`, the “% Inhibition” value is on record as -12% and the Z score amounted to 2.1.

In the case of `Cc1[nH][nH]c(=O)c1CC(=O)N1CCN(Cc2ccc3c(c2)OCO3)CC1`, the “% Inhibition” value was -12% and the Z score was determined as 1.97.

Regarding `Cc1ccc(CN2C3CCC2CC(O)C3)o1` (configuration not stated), the “% Inhibition” value was -2% and the Z score is reported as 0.26.

For `Cn1cc([C@@H]2CNCc3ccccc32)cn1`, the “% Inhibition” value is -20% and the Z score is given as 2.28.

With `CN(CCC1CC1)C(=O)NCCc1cnc2c(Cl)cnn2c1`, the “% Inhibition” value was 14% and the Z score is listed as -1.81.

As to `O=C1CO[C@H]2CN(Cc3ncc[nH]3)C[C@H]2N1Cc1ccncc1`, the “% Inhibition” value is on record as -11% and the Z score was found to be 1.42.

Consider `CC(C)NC(=O)N1C[C@@H]2C[C@@H](C1)c1cccc(=O)n1C2`, for which the “% Inhibition” value is -8% and the Z score is recorded as 1.09.

Take `CCc1c(C(=O)NCC2(N3CCOCC3)CCCCCC2)c(=O)cc(C)n1Cc1ccccc1OC`: the “% Inhibition” value stood at 17% and the Z score was -2.25.

`Cc1csc(CN(C)Cc2n[nH]c(=O)o2)n1`: the “% Inhibition” value is listed as -1% and the Z score is recorded as 0.19.

For the compound `CCCn1c(=O)oc2cc(NS(=O)(=O)c3cccc(Cl)c3)ccc21`, the “% Inhibition” value is recorded as -9% and the Z score is reported as 0.86.

For the compound `CC1CN(CCc2cccc(N)c2)CC1C` (configuration not stated), the “% Inhibition” value is 3% and the Z score was -0.54.

For the compound `C=CCNC(=O)CN1CCc2ncc(C(F)(F)F)cc2C1`, the “% Inhibition” value is -5% and the Z score turned out to be 1.02.

As for `CC(C)CN(C1CCN(C)CC1)C1CN(C(=O)COc2ccccc2)C1`, the “% Inhibition” value is on record as 8% and the Z score is reported as -1.11.

As for `Nc1nccnc1C(=O)N1CCC2(CC1)OCCO2`, the “% Inhibition” value is reported as 14% and the Z score is listed as -1.23.

Consider `Nc1ccc(C2(c3ccc(N)cc3)c3ccccc3-c3ccccc32)cc1`, for which the “% Inhibition” value is given as -3% and the Z score was 0.4.

For the compound `Cc1noc(C)c1CC(=O)N1CC[C@@H]2CN(Cc3cccnc3)[C@@H]2C1`, the “% Inhibition” value is listed as 14% and the Z score is -1.84.

For `O=C(NCC#CCN1CCCC1)c1ccc(Cl)cc1`, the “% Inhibition” value is given as -7% and the Z score is 1.27.

With `CCOC(=O)CN(C)C1CN(C(=O)Cc2c(C)n[nH]c2C)C1`, the “% Inhibition” value is on record as -12% and the Z score is on record as 1.59.

For the compound `O=S(=O)(NC1CCN2CCCCC12)c1cccs1` (configuration not stated), the “% Inhibition” value is -6% and the Z score worked out at 0.87.

For the compound `O=C(c1ccc(Cl)cc1)[C@H]1CCCN(Cc2ccc3ncccc3c2)C1`, the “% Inhibition” value is -9% and the Z score amounted to 1.33.

Take `O=C(COc1ccc(Cl)cc1Cl)N1CCCN2CCC[C@H]2C1`: the “% Inhibition” value is on record as -7% and the Z score came to 0.7.

On to `Cc1ccc(N2CCC3(CCCN3Cc3ccc(Cl)s3)CC2)nn1`, for which the “% Inhibition” value is listed as -9% and the Z score is recorded as 1.66.

Turning to `CC(C(=O)N1CCN2C[C@@H](F)C[C@H]2C1)C1CC1` (some centres not stated), the “% Inhibition” value was -7% and the Z score was 1.23.

The values are drawn from ChEMBL document CHEMBL4888484, “Replenishing the malaria drug discovery pipeline: Screening and hit evaluation of the MMV Hit Generation Library 1 (HGL1) against asexual blood stage Plasmodium falciparum ,using a nano luciferase reporter read-out” (2022).
